From ChEMBL document CHEMBL4888484, “Replenishing the malaria drug discovery pipeline: Screening and hit evaluation of the MMV Hit Generation Library 1 (HGL1) against asexual blood stage Plasmodium falciparum ,using a nano luciferase reporter read-out” (2022)
About 540 (0.36%) of roughly 150,000 compounds showed an effect of 50% or more. This is one part of the list.

What follows are molecules tested on Plasmodium falciparum (assay: Primary screen in NF54 nanoGlo assay, in single point, at 2uM, 72h; a lower Z score goes with more inhibition). Conditions: timepoint 72 hour.
Assay type: functional, Erythrocyte

Compound	% Inhibition	Z score
CC1(C)C[S+]([O-])CCN1C(=O)CC1CCCCO1 (stereo not drawn)	-8%	0.89
CCc1nnc(CC2CCN(C(=O)c3ccc4ccccc4n3)CC2)[nH]1	-12%	1.76
CCC1CCC(CNC(=O)NC2C3CCOC3C2(C)C)CC1 (stereo not drawn)	-2%	0.17
C[C@H]1CCc2c(c(-c3cccnc3)nc3c(-c4ccc(Cl)cc4)cnn23)C1	4%	-0.42
Cc1cc(C)c2sc(N3CCN(C(=O)c4cnc5ccccc5n4)CC3)nc2c1	-4%	0.72
O=S(=O)(NCc1cccs1)c1ccc(-c2cc(C(F)(F)F)n[nH]2)s1	-6%	1.13
CC1(C)CC(NC(=O)N2CCCCC2c2cc[nH]n2)c2ccccc2O1 (stereo not drawn)	-3%	0.56
Cc1nsc(N2CCC(C(F)(F)F)CC2)n1	-4%	0.7
O=C1NC2(CCC2)C(=O)N1CCn1cc(Br)cn1	-4%	0.52
Cn1cc(-c2ccc(NC3CCCC3)nn2)cn1	-21%	1.96
COc1ccc(CCNC(=O)CCc2ccc(-c3ccc(Cl)cc3)n2-c2ccc(OC)cc2)cc1	-3%	0.44
CCOc1cccc(-n2cc(-c3ccccc3)nc2NC(=O)CN(C(C)C)S(=O)(=O)c2ccc(C)cc2)c1	-11%	1.6
CCc1cccc(OCCN(CC)C(=O)c2cnc(C)nc2O)c1	-6%	0.59
Cc1cc(C)c(C#N)c(N2CC[C@@]3(CCCN(CC4CC4)C3=O)C2)n1	2%	-0.37
COc1ccc(Cc2n[nH]c(CCn3c(C)cccc3=O)n2)cc1	-11%	1.98
C[C@]1(NC(=O)c2ccc(-c3cscn3)cc2)CCS(=O)(=O)C1	-2%	0.21
C=C(C)C1OCCC1CNC(=O)NC1c2cccc(F)c2CCC1C (stereo not drawn)	1%	-0.16
O=C(NC1(C(=O)O)CCCCC1)c1cnc2ccccc2n1	-10%	1.26
Cc1ccc(S(=O)(=O)N(CC(=O)N2CCc3sccc3[C@@H]2COc2ccc(Cl)c(C)c2)CC2CC2)cc1	-21%	2
CCOC(=O)N1CCN(C(=O)c2ccc(NCc3ccc(F)cc3)c(S(=O)(=O)Nc3cccc(OC)c3)c2)CC1	0%	0.03
O=C(Cn1cnc2ccccc2c1=O)Nc1nc(CCC2CCCC2)n[nH]1	-5%	0.49

Compound	% Inhibition	Z score
CCCN(CCO)C(=O)Nc1ccc(OC)c(C(=O)NC)c1	-3%	0.36
CC(NC(=O)C1CCCC(C(=O)O)C1)c1ccco1 (stereo not drawn)	-12%	1.53
CC1(C)C2CCC1(CS(=O)(=O)O)C(=O)C2.CCC(C)(c1ccccc1)C1CNc2ccccc21 (stereo not drawn)	-17%	2.69
COc1ccc(C(=O)N2CCCN(c3nc4c(s3)c(C)nn4-c3cccc(C)c3)CC2)c(OC)c1	5%	-0.84
Cc1ccc2ncc(-c3ncccc3C(=O)N3CCCC3)cc2c1	-6%	1.18
Cn1cc([C@H]2CCN(CC3CCC4(CC3)OCCO4)C2)cn1	5%	-0.8
Cn1ccc(CNCc2c(Br)cc(F)c(F)c2N2CCCCC2)n1	4%	-0.75
CC(C)CN1CCN(Cc2ccn(CC(F)(F)F)n2)CC1=O	-8%	1.13
CNC(=O)NC(=O)CNc1cc(-c2ccc(C#N)s2)ccc1C	16%	-2.41
CC(NC(=O)N1CC2C3CCC(O3)C2C1)c1cccc(Cl)c1 (stereo not drawn)	5%	-0.54
O=S(=O)(c1ccc2c(c1)OCCO2)N1CC[C@H](Oc2cnc3ccccc3n2)C1	-7%	0.99
O=C(Nc1ccc(OC[C@H]2CCOC2)cc1)c1scnc1C1CC1	-3%	0.32
Cc1nc(NCc2ccccc2Cl)sc1S(N)(=O)=O	-9%	1.47
NC(=O)CN1CCCN(C(=O)C2(Cc3ccccc3)CCC2)CC1	-10%	1.78
Cc1cc(C(=O)NC[C@@H](c2ccco2)N2CCCC2)n(C)n1	-10%	1.17
CCc1nc(CN(C)Cc2cc3cc4c(cc3nc2-c2ccc(F)cc2)OCO4)no1	-10%	1.27
C#CC[C@H](C)NC(=O)N(C)CCCN1CCCC1	-1%	0.19
Cc1cc(C(=O)N2CCC([C@]3(CCC(C)C)NC(=O)N(Cc4ccccn4)C3=O)CC2)no1	7%	-1.23
C[C@H]1c2ccsc2CCN1C(=O)Nc1ccc(F)c(NC(=O)c2ccsc2)c1	5%	-0.98
Cc1c(NCC(C)(C)C)cccc1C(=O)N1CC(O)(c2cnn[nH]2)C1	-5%	0.8
COC(=O)N1CCCC[C@H]1C(=O)N1CCc2[nH]c(-c3ccccc3)nc2C1	1%	-0.14

Compound	% Inhibition	Z score
CNS(=O)(=O)CCNCc1ccc(C)c(Cl)c1	-10%	1.87
C[C@@H]1CN(C2CCOCC2)CCN1C(=O)Cn1cc2ccccc2n1	-10%	1.58
Cc1nn(CC(=O)N(C)[C@@H](C)c2ccon2)c(C)c1Cl	-28%	2.74
COCc1ccccc1S(=O)(=O)N1CCN(c2nc[nH]n2)CC1	-8%	1.24
Fc1ccc(-c2noc(CN3CCC4(CC3)OCCO4)n2)cc1	-2%	0.34
O=C(CC1CCCCCC1)N1CCCC1	-16%	2.05
COC(=O)c1ccnc(N(C)C[C@H](C)c2nccs2)n1	-16%	1.94
c1ccc(-c2cnn3cc(CN4CCCC4)cnc23)cc1	-7%	1.02
CCCN(CCOC)C(=O)c1cc(CC)[nH]c(=O)c1	-12%	2.35
CCN(CC)c1ccc(C2=Nc3ncnn3/C2=N/Cc2ccccc2)cc1	-14%	1.99
O=C(Nc1ccc(N2CCCC2)c(F)c1)C(=O)Nc1ccon1	35%	-5.06
Cc1ccccc1C1(C(=O)Nc2nnc(NS(C)(=O)=O)s2)CCC1	2%	-0.27
FC(F)(F)c1cccc(-n2cnnc2Cc2nnn[nH]2)c1	2%	-0.33
FC(F)(F)c1cccc(-c2noc(Cc3cnn(-c4ccccc4)c3)n2)n1	-8%	1.06
C[C@H](NCc1ccncc1Cl)c1ccc(S(C)(=O)=O)c(F)c1	3%	-0.65
Cc1oc(NC(=O)c2ccc(Cl)o2)nc1C1CC1	-8%	1.57
O=C(CCCCC(=O)NC1CCCC1)NC1CCCC1	12%	-1.55
CCCN1N=C(C(=O)N2CCC(C)CC2)S(=O)(=O)c2ccc(C)cc21	8%	-0.98
Cn1nnc([C@](C)(O)c2ccccc2)n1	-5%	0.84
COc1cccnc1C(=O)N1CCS(=O)(=O)C[C@H]1C(C)(C)C	1%	-0.1
C[C@H]1CCCN(c2nn(CC(=O)Nc3ccc4c(c3)OCCO4)c(=O)c3ccccc23)C1	-7%	0.98

Compound	% Inhibition	Z score
CC(C)c1nnc(-c2ccc(S(=O)(=O)N3CCOCC3)o2)o1	-6%	0.83
O=C1N(Cc2ccc(F)cc2)c2ccccc2C12OCCO2	-16%	2.99
Cc1cc(C(=O)N2CCC[C@H](c3nc(-c4cccnc4)no3)C2)c(C)o1	17%	-2.2
COc1cccc(NC(=O)Nc2ccc3c(c2)CN(CCc2ccc(OC)c(OC)c2)C(=O)[C@H](C)O3)c1	0%	-0.08
CC(NC(C)C(C)n1cccn1)C(=O)Nc1ncccn1 (stereo not drawn)	11%	-1.5
Cn1nccc1C(=O)N1CCCC[C@H]1c1nc(-c2ccncc2)no1	-19%	2.06
Cc1ccc(CCNC(=O)c2noc(-c3ccc(C)cc3)n2)cc1	-18%	1.61
CN(C)C(=O)N1CCN(CCCOc2ccccc2)[C@@H]2CS(=O)(=O)C[C@@H]21	1%	-0.26
CCC(=O)N1CCC(NC(=O)N(CC)C[C@H](O)c2cccc(O)c2)CC1	-19%	1.68
Cc1ccc(C)c(NC(=O)Cc2nc(Cc3ccccc3F)n[nH]2)c1	6%	-0.73
O=C(c1ncc2ccccc2c1O)N1CC[C@H](CC(F)(F)F)C1	-3%	0.47
C[C@@H](C(=O)N1CC(c2ccccn2)C1)N1CCCC1=O	-1%	0.14
Cc1ncc(C(=O)N(C)[C@@H](C)c2ccon2)c(O)n1	-3%	0.5
CCOc1cc(N(C)CC2CCN(C)CC2)ncn1	-1%	0.09
Cc1ccc(Cl)cc1C(=O)N1CCOC[C@@H](CN(C)C)C1	-2%	0.33
Cc1ccc(C(=O)N2CC(C)CC(C)C2)cc1NCc1ncc[nH]1 (stereo not drawn)	33%	-0.73
CC(C)(C)CN1CCCC(N2CCC(c3ncc[nH]3)C2)C1=O (stereo not drawn)	-9%	0.88
OC[C@@H]1CCN(c2nc(-c3ccc(F)cc3)cs2)C[C@@H]1O	9%	-1.22
Cc1cccc2ncnc(N(C)[C@@H](C)Cc3ccc(O)cc3)c12	77%	-16.2
Oc1cccc(CNCCN2CC=CCC2)c1	-10%	1.98
COc1cc(NC(=O)Nc2cccc(C)c2C)cc2sc(NC(=O)c3ccccc3)nc12	3%	-0.52
